Assay results published in patent US12662541B2, “Antibody-drug conjugates against the receptor tyrosine kinase EphA5” (Rutgers, The State University of New Jersey, priority 2021, dated 2026).

Legend:
[1] = Thermal ramp stability (UNcle biostability platform, Sypro Orange and SLS); type: physicochemical
Excerpt: Thermal ramp stability experiments (Tm and Tagg) are well established methods for ranking proteins and formulations for stability. A protein's denaturation profile provides information about its thermal stability and represents a structural ‘fingerprint’ for assessing structural and formulation buffer modifications. A widely used measure of the thermal structural stability of a protein is the temperature at which it unfolds from the native state to a denatured state. For many proteins, this unfolding process occurs over a narrow temperature range and the mid-point of this transition is termed ‘melting temperature’ or ‘Tm’. To determine the melting temperature of a protein, UNcle measures the fluorescence of Sypro Orange (which binds to exposed hydrophobic regions of proteins) as the protein undergoes conformational changes.
Samples for each variant were formulated in PBS and Sypro Orange at a final concentration of 1 mg/mL. […] Samples were subjected to a thermal ramp from 25-95° C., with a ramp rate of 0.3° C./minute and excitation at 473 nm. Full emission spectra were collected from 250-720 nm, and the area under the curve between 510-680 nm was used to calculate the inflection points of the transition curves (Tonset and Tm). Monitoring of static light scattering (SLS) at 473 nm allowed the detection of protein aggregation, and Tagg (onset of aggregation) was calculated from the resulting SLS profiles. Thermal stability values determined lie in a broad range from 57.9 to 69.6° C. (Tm1), 55.1 to 65.2° C. (Tonset) and 65.6 to 70.2° C. (Tagg) with the humanized leads generally showing improved profiles when compared to the chimeric antibody. […] All humanized antibodies appear to have a higher Tm1, Tonset and Tagg compared to the chimeric antibody.

[2] = biological target: T1, rhEphA5 antigen (Homo sapiens, UniProt P54756); assay: ka (1/Ms)
T1 construct: purchased R and D systems 3036-A5
T1 sequence (P54756 25-1037 limits assumed): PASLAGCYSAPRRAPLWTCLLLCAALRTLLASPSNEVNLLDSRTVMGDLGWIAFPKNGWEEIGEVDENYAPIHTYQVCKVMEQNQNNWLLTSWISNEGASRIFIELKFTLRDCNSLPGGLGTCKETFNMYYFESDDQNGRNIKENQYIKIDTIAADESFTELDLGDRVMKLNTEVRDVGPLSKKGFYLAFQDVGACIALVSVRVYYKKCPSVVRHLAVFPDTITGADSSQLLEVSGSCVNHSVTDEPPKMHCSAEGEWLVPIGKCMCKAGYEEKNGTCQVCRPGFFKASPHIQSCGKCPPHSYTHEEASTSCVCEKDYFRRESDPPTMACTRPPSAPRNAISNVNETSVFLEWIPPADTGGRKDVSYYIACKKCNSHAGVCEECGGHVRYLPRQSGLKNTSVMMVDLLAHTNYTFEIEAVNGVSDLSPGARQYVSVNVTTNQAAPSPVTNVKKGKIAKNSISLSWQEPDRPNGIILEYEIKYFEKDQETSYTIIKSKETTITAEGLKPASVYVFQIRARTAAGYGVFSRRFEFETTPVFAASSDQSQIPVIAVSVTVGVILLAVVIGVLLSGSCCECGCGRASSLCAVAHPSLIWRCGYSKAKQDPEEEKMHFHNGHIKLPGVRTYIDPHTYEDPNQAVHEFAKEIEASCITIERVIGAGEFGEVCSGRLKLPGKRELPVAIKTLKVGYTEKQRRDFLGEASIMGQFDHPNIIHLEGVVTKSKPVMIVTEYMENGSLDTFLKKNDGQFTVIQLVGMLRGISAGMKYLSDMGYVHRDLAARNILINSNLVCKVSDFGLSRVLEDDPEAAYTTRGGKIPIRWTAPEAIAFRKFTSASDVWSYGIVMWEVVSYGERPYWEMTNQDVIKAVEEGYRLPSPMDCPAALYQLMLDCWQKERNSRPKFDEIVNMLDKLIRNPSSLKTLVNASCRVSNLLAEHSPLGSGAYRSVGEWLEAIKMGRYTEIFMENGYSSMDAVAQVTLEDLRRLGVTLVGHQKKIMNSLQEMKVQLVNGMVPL
Procedure: Table printed on a drawing sheet, FIG. 13
Head of the field: ka (1/Ms)
The patent's description of the figure: FIG. 13 is a table illustrating the single cycle kinetic parameters of chimeric (VH0/VK0) and humanized 11C12 variants (tested as cell culture supernatants) binding to rhEphA5 antigen as determined using the Biacore T200. The relative KD was calculated by dividing the KD of the humanized variant by that of the VH0/VK0 (top row) assayed in the same experiment. The variants marked with ‘*’ have KD values that are within two-fold of, or are better than, the chimeric antibody. The chimeric and selected variants marked in ‘#’ were identified as the main leads for purification. […]
Where the first naming reader finds the target: description_of_the_figure: humanized 11C12 variants (tested as cell culture supernatants) binding to rhEphA5 antigen as determined using the Biacore T200

[3] = test system: H460 cells (EphA5-positive); assay: Cell death time-course (Green Object Count), H460; type: cell-based, human; settings: dose- and time-dependent, FIG. 4A
[4] = test system: PDX model TM00096 (BR085F), triple negative breast cancer; assay: PDX TM00096 efficacy; type: in vivo, mice; settings: TM00096
Procedure: Test Animals. The present studies were performed using female NSG™ mice implanted with the PDX model TM00096 (BR085F) purchased from Jackson Laboratories. These mice are extremely immunodeficient and carry two mutations: severe combined immune deficiency (scid) and a complete null allele of the IL2 receptor common gamma chain (IL2rg^null). The scid mutation is a mutation in the DNA repair complex protein Prkdc and renders the mice B and T cell deficient. The IL2rg^null mutation prevents cytokine signaling through multiple receptors, leading to a deficiency in functional NK cells. This severe immunodeficiency allows the implantation of patient derived xenografts (PDX) and growth of human tissue-based tumors in the mice. These tumors have similar characteristics to the human tumors from which they are derived (e.g., gene expression) and are predictive of human response to therapeutic agents. The initial and final diagnosis of the patient from which the model was derived was invasive ductal carcinoma AJCC IIA/Grade 3. The primary site of the tumor was breast, sample for implantation was obtained from the metastatic site (lung). The tumor was not treatment naïve. The patient from which the sample was derived was a person. The sample was obtained by surgical resection. The host strain of the sample for engraftment was NOD.Cg-Prkdc^scid Il2rg^tm1Wj1/SzJ (aka NSG or NOD Scid gamma).
Mice received 5 weekly doses of ADC1 or ADC2, or 4 weekly doses of ADC3 or ADC4 at 10 mg/kg or PBS via tail vein injection. Animals were dosed on days 0, 7, 14, 21 and 28 followed by 2 weeks of observation (day 28-40) without treatment (or until cessation of study). The number of mice used per group averaged n=7-10 with some mice presenting with more than 1 tumor implanted subcutaneously. In those cases, each tumor size was measured and recorded independently. Measurements were performed 2-3 times weekly with the aid of a digital caliper (Fisherbrand™ Traceable™ Digital Carbon Fiber Calipers). Studies lasted an average of 40 days or until maximum allowed tumor volume was reached and/or skin ulceration was noted. All studies included a control group of an equal number of mice to those in the treatment group. Control groups received PBS tail vein injections and were submitted to the same handling procedures as TA treated mice. First treatment was administered when tumors reached 100-150 mm3 volume.

[5] = test system: PDX model TM00226 (LG1179F), lung adenocarcinoma; assay: PDX TM00226 efficacy; type: in vivo, mice
Procedure: The present studies were performed using female NSG™ mice implanted with the PDX model TM00226 (LG1179F) purchased from Jackson Laboratories. These mice are extremely immunodeficient and carry two mutations: severe combined immune deficiency (scid) and a complete null allele of the IL2 receptor common gamma chain (IL2rg^null). The scid mutation is a mutation in the DNA repair complex protein Prkdc and renders the mice B and T cell deficient. The IL2rg^null mutation prevents cytokine signaling through multiple receptors, leading to a deficiency in functional NK cells. This severe immunodeficiency allows the implantation of PDX and growth of human tissue-based tumors in the mice. These tumors have similar characteristics to the human tumors from which they are derived (e.g., gene expression) and are predictive of human response to therapeutic agents.
Mice received 5 weekly doses of ADC1 or ADC2 at 10 mg/kg or PBS via tail vein injection. Animals were dosed on days 0, 7, 14, 21 and 28 followed by 3 weeks of observation (day 28-50) without treatment. The number of mice used per group averaged n=7 with some mice presenting with more than 1 tumor implanted subcutaneously. In those cases, each tumor size was measured and recorded independently. Measurements were performed 2-3 times weekly with the aid of a digital caliper (Fisherbrand™ Traceable™ Digital Carbon Fiber Calipers). Studies lasted on average 50 days or until maximum allowed tumor volume was reached and/or skin ulceration was noted. All studies included a control group of an equal number of mice to those in the treatment group. Control groups received PBS tail vein injections and were submitted to the same handling procedures as ADC1 and ADC2 treated mice. First treatment was administered when tumors reached 100-150 mm^3 volume.

Row | Molecule | Average Tonset (° C.) [1] | Tagg ranking among the leads (SLS profiles) [1] | Tm1, Tonset and Tagg compared to the chimeric antibody VH0/VK0 [1] | Average Tm1 (° C.) ([1]; 1 mg/mL in PBS, ramp 25-95° C.) | Average Tagg 473 (° C.) ([1]; SLS at 473 nm) | ka [2] | killing of EPHA5+ cells [3] | tumor response (tumor volume) ([4]; 10 mg/kg weekly tail vein, 5 doses (ADC1, ADC2) or 4 doses (ADC3, ADC4), here ADC2 = VH4Vk3-ThioBridge-VCP-MMAE) | tumors remaining at the end of the study ([4]; ADC2 = VH4Vk3-ThioBridge-VCP-MMAE) | tumors regressed completely ([4]; of 12 tumors (ADC1), of 10 tumors (ADC2 = VH4Vk3-ThioBridge-VCP-MMAE)) | tumors remaining at the end of the study [5] | tumor response (tumor volume) ([5]; 5 weekly doses of 10 mg/kg tail vein, ADC2 = VH5Vk3-ThioBridge®-VCP-(SN-38)2) | tumors regressed completely ([5]; of a total of 8 tumors)
1 | VH5/VK3: humanized anti-EphA5 IgG1/kappa antibody, heavy chain SEQ ID NO:39, light chain SEQ ID NO:40 (antibody) heavy: EVQLVESGGGLVQPGGSLKLSCAASGFTFSTFGIHWVRQAPGKGLEWVAYISGASTTIYYADSVKGRFTISRDNSKNTLYLQMNSLRAEDTAVYYCARYGTSFPYGLDYWGQGTLVTVSSASTKGPSVFPLAPSSKSTSGGTAALGCLVKDYFPEPVTVSWNSGALTSGVHTFPAVLQSSGLYSLSSVVTVPSSSLGTQTYICNVNHKPSNTKVDKRV[letters of human IgG1 Fc left out] light: DIVMTQSPDSLAVSLGERATINCKASQSVDYDGDSYMNWYQQKPGKAPKLLIYGASNLESGIPDRFSGSGSGTDFTLTISRLEPEDAAVYYCQQSNEDPFTFGQGTKLEIKRTVAAPSVFIFPPSDEQLKSGTASVVCLLNNFYPREAKVQWKVDNALQSGNSQESVTEQDSKDSTYSLSSTLTLSKADYEKHKVYACEVTHQGLSSPVTKSFNRGEC | 63.6 °C | highest Tagg values | VH5/VK3 has a higher Tm1, Tonset and Tagg compared to VH0/VK0. | 69.0 °C | 70.2 °C | 1.36e-06 M⁻¹ s⁻¹ | – | – | – | – | – | – | –
2 | VH5Vk3-ThioBridge®-VCP-MMAE (conjugate) heavy: EVQLVESGGGLVQPGGSLKLSCAASGFTFSTFGIHWVRQAPGKGLEWVAYISGASTTIYYADSVKGRFTISRDNSKNTLYLQMNSLRAEDTAVYYCARYGTSFPYGLDYWGQGTLVTVSSASTKGPSVFPLAPSSKSTSGGTAALGCLVKDYFPEPVTVSWNSGALTSGVHTFPAVLQSSGLYSLSSVVTVPSSSLGTQTYICNVNHKPSNTKVDKRV[letters of human IgG1 Fc left out] light: DIVMTQSPDSLAVSLGERATINCKASQSVDYDGDSYMNWYQQKPGKAPKLLIYGASNLESGIPDRFSGSGSGTDFTLTISRLEPEDAAVYYCQQSNEDPFTFGQGTKLEIKRTVAAPSVFIFPPSDEQLKSGTASVVCLLNNFYPREAKVQWKVDNALQSGNSQESVTEQDSKDSTYSLSSTLTLSKADYEKHKVYACEVTHQGLSSPVTKSFNRGEC | – | – | – | – | – | – | able to kill EPHA5+ cells | full and sustained regression of tumors | Eight | 4 tumors | Seven | sustained regression of tumors | 1 tumors
